# Experimental data as given in article PMC12820563, “FoxP3 forms a head-to-head dimer in vivo and stabilizes its multimerization on adjacent microsatellites”.
# The list shows a part of the results.
# Molecular target: T1, MBP-FoxP1dN (Mus musculus, UniProt P58462 326-579)
# T1 sequence: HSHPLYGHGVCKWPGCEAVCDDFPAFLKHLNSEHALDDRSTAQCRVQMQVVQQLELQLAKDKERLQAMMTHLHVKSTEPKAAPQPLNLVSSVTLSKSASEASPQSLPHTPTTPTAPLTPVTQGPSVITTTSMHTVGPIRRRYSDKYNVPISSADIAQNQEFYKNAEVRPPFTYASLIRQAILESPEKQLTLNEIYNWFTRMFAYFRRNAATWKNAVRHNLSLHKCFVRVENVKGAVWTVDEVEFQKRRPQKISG
# Test: PD-seq (MBP pull-down with sequencing); 20 mM Tris-HCl pH 7.5, 100 mM NaCl, 1.5 mM MgCl2, 0.4 uM protein, 0.1 uM dsDNA library, 30 min, room temperature, amylose pull-down; high values mean tight binding
# Settings: protein: recombinant; tags: His6-MBP; chain copies: 2; dsDNA, one strand shown
# Procedure, shortened: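 Binding is the reads-per-million enrichment of pull-down relative to input, pooled across replicates. For this, 0.4 µM His6-MBP-tagged mouse FoxP3 or FoxP1 fragment lacking the N-terminus, made in E. coli, was incubated with 0.1 µM Klenow-filled double-stranded degenerate DNA library for 30 min at room temperature in Tris pH 7.5 buffer with NaCl and MgCl2. Complexes bound to amylose resin were washed three times before proteinase K released the DNA for PCR barcoding and Illumina sequencing.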
row,Sequence,binding signal
1,GATGATTGTTCTCCCAGCTGATGAATTAATATATTCGAGTAAACAAATTTTCCTAATCTTTCTGTTCAAGCGCCATCTAC,1.04 RPM ratio (pull-down/input)
2,GATGATTGTTCTCCCAGCTGATGAATTACGGCAGTCGAGTAAACAAATTTTCCTAATCTTTCTGTTCAAGCGCCATCTAC,0.947 RPM ratio (pull-down/input)
3,GATGATTGTTCTCCCAGCTGATGAATTATCCTGTTCGAGTAAACAAATTTTCCTAATCTTTCTGTTCAAGCGCCATCTAC,0.962 RPM ratio (pull-down/input)
4,GATGATTGTTCTCCCAGCTGATGAATTGTTAGGGTCGAGTAAACAAATTTTCCTAATCTTTCTGTTCAAGCGCCATCTAC,1.05 RPM ratio (pull-down/input)
5,GATGATTGTTCTCCCAGCTGATGAATTCGGGCCGTCGAGTAAACAAATTTTCCTAATCTTTCTGTTCAAGCGCCATCTAC,0.769 RPM ratio (pull-down/input)
6,GATGATTGTTCTCCCAGCTGATGAATTCCATGTATCGAGTAAACAAATTTTCCTAATCTTTCTGTTCAAGCGCCATCTAC,1.03 RPM ratio (pull-down/input)
7,GATGATTGTTCTCCCAGCTGATGAATTTCATAACTCGAGTAAACAAATTTTCCTAATCTTTCTGTTCAAGCGCCATCTAC,0.891 RPM ratio (pull-down/input)
8,GATGATTGTTCTCCCAGCTGATGAATTTCTAATGTCGAGTAAACAAATTTTCCTAATCTTTCTGTTCAAGCGCCATCTAC,1.03 RPM ratio (pull-down/input)
9,GATGATTGTTCTCCCAGCTGATGAATTCGTGACATCGAGTAAACAAATTTTCCTAATCTTTCTGTTCAAGCGCCATCTAC,0.992 RPM ratio (pull-down/input)
10,GATGATTGTTCTCCCAGCTGATGAATTTCTTGGTTCGAGTAAACAAATTTTCCTAATCTTTCTGTTCAAGCGCCATCTAC,0.839 RPM ratio (pull-down/input)
11,GATGATTGTTCTCCCAGCTGATGAATTAGACATCTCGAGTAAACAAATTTTCCTAATCTTTCTGTTCAAGCGCCATCTAC,0.973 RPM ratio (pull-down/input)
12,GATGATTGTTCTCCCAGCTGATGAATTGTTAAAATCGAGTAAACAAATTTTCCTAATCTTTCTGTTCAAGCGCCATCTAC,1.24 RPM ratio (pull-down/input)
13,GATGATTGTTCTCCCAGCTGATGAATTGGCATCATCGAGTAAACAAATTTTCCTAATCTTTCTGTTCAAGCGCCATCTAC,1.11 RPM ratio (pull-down/input)
14,GATGATTGTTCTCCCAGCTGATGAATTTCTGCCGTCGAGTAAACAAATTTTCCTAATCTTTCTGTTCAAGCGCCATCTAC,0.825 RPM ratio (pull-down/input)
15,GATGATTGTTCTCCCAGCTGATGAATTACGGGGCTCGAGTAAACAAATTTTCCTAATCTTTCTGTTCAAGCGCCATCTAC,0.806 RPM ratio (pull-down/input)
16,GATGATTGTTCTCCCAGCTGATGAATTACTCACTTCGAGTAAACAAATTTTCCTAATCTTTCTGTTCAAGCGCCATCTAC,1.09 RPM ratio (pull-down/input)
17,GATGATTGTTCTCCCAGCTGATGAATTCCGCGCTTCGAGTAAACAAATTTTCCTAATCTTTCTGTTCAAGCGCCATCTAC,0.891 RPM ratio (pull-down/input)
18,GATGATTGTTCTCCCAGCTGATGAATTTTGGACATCGAGTAAACAAATTTTCCTAATCTTTCTGTTCAAGCGCCATCTAC,1.05 RPM ratio (pull-down/input)
19,GATGATTGTTCTCCCAGCTGATGAATTGTCCTCTTCGAGTAAACAAATTTTCCTAATCTTTCTGTTCAAGCGCCATCTAC,1.03 RPM ratio (pull-down/input)
20,GATGATTGTTCTCCCAGCTGATGAATTAGCCTGCTCGAGTAAACAAATTTTCCTAATCTTTCTGTTCAAGCGCCATCTAC,0.857 RPM ratio (pull-down/input)

row,Sequence,binding signal
1,GATGATTGTTCTCCCAGCTGATGAATTCTTCTTATCGAGTAAACAAATTTTCCTAATCTTTCTGTTCAAGCGCCATCTAC,0.893 RPM ratio (pull-down/input)
2,GATGATTGTTCTCCCAGCTGATGAATTTCGCCGATCGAGTAAACAAATTTTCCTAATCTTTCTGTTCAAGCGCCATCTAC,0.845 RPM ratio (pull-down/input)
3,GATGATTGTTCTCCCAGCTGATGAATTGTAATACTCGAGTAAACAAATTTTCCTAATCTTTCTGTTCAAGCGCCATCTAC,1.04 RPM ratio (pull-down/input)
4,GATGATTGTTCTCCCAGCTGATGAATTAAAGCGTTCGAGTAAACAAATTTTCCTAATCTTTCTGTTCAAGCGCCATCTAC,1.03 RPM ratio (pull-down/input)
5,GATGATTGTTCTCCCAGCTGATGAATTTAGAACTTCGAGTAAACAAATTTTCCTAATCTTTCTGTTCAAGCGCCATCTAC,1.03 RPM ratio (pull-down/input)
6,GATGATTGTTCTCCCAGCTGATGAATTAACCCCATCGAGTAAACAAATTTTCCTAATCTTTCTGTTCAAGCGCCATCTAC,0.894 RPM ratio (pull-down/input)
7,GATGATTGTTCTCCCAGCTGATGAATTGTCTTTCTCGAGTAAACAAATTTTCCTAATCTTTCTGTTCAAGCGCCATCTAC,1.14 RPM ratio (pull-down/input)
8,GATGATTGTTCTCCCAGCTGATGAATTAAACGAATCGAGTAAACAAATTTTCCTAATCTTTCTGTTCAAGCGCCATCTAC,0.927 RPM ratio (pull-down/input)
9,GATGATTGTTCTCCCAGCTGATGAATTCCTCTATTCGAGTAAACAAATTTTCCTAATCTTTCTGTTCAAGCGCCATCTAC,0.833 RPM ratio (pull-down/input)
10,GATGATTGTTCTCCCAGCTGATGAATTATGATGCTCGAGTAAACAAATTTTCCTAATCTTTCTGTTCAAGCGCCATCTAC,1.64 RPM ratio (pull-down/input)
11,GATGATTGTTCTCCCAGCTGATGAATTTGGGGATTCGAGTAAACAAATTTTCCTAATCTTTCTGTTCAAGCGCCATCTAC,0.891 RPM ratio (pull-down/input)
12,GATGATTGTTCTCCCAGCTGATGAATTCAGGCTGTCGAGTAAACAAATTTTCCTAATCTTTCTGTTCAAGCGCCATCTAC,0.854 RPM ratio (pull-down/input)
13,GATGATTGTTCTCCCAGCTGATGAATTGCTGCCCTCGAGTAAACAAATTTTCCTAATCTTTCTGTTCAAGCGCCATCTAC,0.93 RPM ratio (pull-down/input)
14,GATGATTGTTCTCCCAGCTGATGAATTGATTAGCTCGAGTAAACAAATTTTCCTAATCTTTCTGTTCAAGCGCCATCTAC,1 RPM ratio (pull-down/input)
15,GATGATTGTTCTCCCAGCTGATGAATTTTCTCTTTCGAGTAAACAAATTTTCCTAATCTTTCTGTTCAAGCGCCATCTAC,0.962 RPM ratio (pull-down/input)
16,GATGATTGTTCTCCCAGCTGATGAATTATTGTCCTCGAGTAAACAAATTTTCCTAATCTTTCTGTTCAAGCGCCATCTAC,1.48 RPM ratio (pull-down/input)
17,GATGATTGTTCTCCCAGCTGATGAATTGATCATATCGAGTAAACAAATTTTCCTAATCTTTCTGTTCAAGCGCCATCTAC,1.18 RPM ratio (pull-down/input)
18,GATGATTGTTCTCCCAGCTGATGAATTGCGAAGGTCGAGTAAACAAATTTTCCTAATCTTTCTGTTCAAGCGCCATCTAC,0.937 RPM ratio (pull-down/input)
19,GATGATTGTTCTCCCAGCTGATGAATTGTCCACATCGAGTAAACAAATTTTCCTAATCTTTCTGTTCAAGCGCCATCTAC,1.33 RPM ratio (pull-down/input)
20,GATGATTGTTCTCCCAGCTGATGAATTCTTCACGTCGAGTAAACAAATTTTCCTAATCTTTCTGTTCAAGCGCCATCTAC,0.901 RPM ratio (pull-down/input)
